The text below walks through data of the supplement of paper PMC11417369.

This is one part of the list.

This experiment concerns PfHDP1 homeodomain (GST-tagged). The experiment can be described thus: gcPBM binding intensity (ln(normalized median fluorescence intensity)); higher = stronger DNA binding. The method, boiled down:
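After 1 h on an Agilent 4 × 180k array of primer-extended double-stranded 36-bp intergenic genomic probes and negative controls, bound GST-tagged P. falciparum DNA-binding domains were detected with Alexa488 anti-GST antibody and scanned at 488 nm. The domains had been expressed in E. coli, and binding took place in 1× PBS with 1% milk, 0.2 mg/ml BSA, 0.5% salmon testes DNA and 0.03% Triton X-100. Binding intensity is the highest Masliner-normalised natural-log median intensity across replicate spots of either probe orientation.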
“ATCTCTTACATATTCACACACATATAAATAACTACA [CACACA_site6816]”: the “gcPBM binding intensity (ln)” value amounted to 7.4. Then “ATTAATAATTATTATGGTACACATGTAACTACTCTC [XGTACX_site198]”, with 6.69; and “ATATGATAGTTTATATGTACATAAATAAATACATAC [XGTACX_site2917]”, with 6.4; and “AAAGAAAAAAAATAATGTACATATGTATTTGAGAAA [XGTACX_site3571]”, with 6.92. On to “AAAAAAATAAAACACATACATATATGTATATATATA [GTGCAC_negctrl_site390]”, for which the “gcPBM binding intensity (ln)” value was 7.81. For the sequence TTCTAAAATTATATAGTGCAATTATTTTATTTTTCT, the “gcPBM binding intensity (ln)” value amounted to 9.71.

Consider TAAATATATATATAAGTGCATTATATATATATATAA, for which the “gcPBM binding intensity (ln)” value was determined as 9.53. Then “TACTTTCACATTAAATGTACGTATAGTTTCATTCTT [XGTACX_site8528]”, with 6.73; and “ATATTAAAAATATATACACACATATATATAAATATA [CACACA_site2257]”, with 6.44; and “ATAAATATGGAGCACACACACATAAACATACAGATA [CACACA_site4395]”, with 7.22. “TATATTTAAGTACATAAATAAGCCCATTTACATACA [CACACA_negctrl_site1224]”: the “gcPBM binding intensity (ln)” value was found to be 6.25. With TTTGGAGAATTCATAGTGCATTTATTTATTGTTAAT the figure was 7.83; with “ACGTTAGGCTTATTTGCACACTTGTATTATAATTTT [CACACA_site1317]”, 10.3. As for “AAAAATATGAAAGTAACTAAGTTGTTATTGATAACA [CACACA_negctrl_site1608]”, the “gcPBM binding intensity (ln)” value is 6.1. As to “ATATTATCACAAGGTGGTACACAAAAAAAAAAAAAA [XGTACX_site8224]”, the “gcPBM binding intensity (ln)” value was determined as 6.4.

As to “CATATACATAGACACACACACACATAAATAAATATA [CACACA_site6749]”, the “gcPBM binding intensity (ln)” value was determined as 6.92. For the sequence “TTTCCTGGTCAAGGGGTTACGGTTACGTCCTCTTGC [CACACA_negctrl_site856]”, the “gcPBM binding intensity (ln)” value came to 5.78. In the case of “TTATGTATTTATTTATGTACTAATTGTATGCATATT [XGTACX_site6436]”, the “gcPBM binding intensity (ln)” value is 6.4. Then “ATACTTTATAAATACTAAAGTGTATTTTGTAATATA [CACACA_negctrl_site1710]”, with 6.32. Take “ATTTGTATATATAATTGTACGCATATTCTATACGAT [XGTACX_site7367]”: the “gcPBM binding intensity (ln)” value worked out at 6.35.

In the case of “TAAGTGATCGCATAATGTACATATTATTTATTATTT [XGTACX_site3061]”, the “gcPBM binding intensity (ln)” value was determined as 6.42. Then “CATACATACATACATACACACATATATAAATATATG [CACACA_site7028]”, with 7.49; and “GGAAGGATATAACATACACACACACCCATATATATA [CACACA_site9376]”, with 7.04; and “TACATTTAAAAAAAAACACACATATTTATATTTATA [CACACA_site7236]”, with 6.04. Then “ATACATTCTAATACGTGTACATATATATATATATAT [XGTACX_site1881]”, with 9.49. With “AATAATATTAACACACGTACAAAAGCAAACAACCAA [XGTACX_site7410]” the figure was 7.16; with “TTTATATTATTATATCTTATTAATTATTTATCATTT [TGCATGCA_negctrl_site73]”, 6.23.

“ATAAAACAAAAACACACACACATACACAAAAAAAAA [CACACA_site3848]”: the “gcPBM binding intensity (ln)” value amounted to 6.94. Then “GGAGACTTTGTACAAACACACACATGAACACAATAT [CACACA_site8376]”, with 7.26; and “TCTTCACCACGTGGAAGTACATAAAAAGATACACAA [XGTACX_site4747]”, with 6.77; and “TTTTAATATATAGAGTAACAAATTTGTCTATTAATA [CACACA_negctrl_site1495]”, with 6.6. As for “ATGTATATATTTATGTGTACTTAAATTTTTTTTTGT [XGTACX_site8179]”, the “gcPBM binding intensity (ln)” value amounted to 6.07. With “TAATTTAAAAATGAACATATATATGTATGTAAATAT [TGCATGCA_negctrl_site135]” the figure was 7.16; with “CATCTTAAATAAGAACGTACATTTTTTTTGATGAGA [XGTACX_site3462]”, 6.16; with “AAGACAAAACAAAGAAGTACATATATATATATATAT [XGTACX_site4067]”, 9.36. Consider “ATATATATATAATATTGTACATAGTAGACATCACAC [XGTACX_site4649]”, for which the “gcPBM binding intensity (ln)” value is 8.43. Take “TCTTATTATAAAAGGAGTACATCAATTAGATGTTCC [XGTACX_site8465]”: the “gcPBM binding intensity (ln)” value was 6.07. Turning to “CAAAGCATAGTATGATGTACAAATGTTCCTATAATA [XGTACX_site8642]”, the “gcPBM binding intensity (ln)” value amounted to 6.54. With “TTATGTTTATACACTACACACATTATTCATAAAAAA [CACACA_site4637]”, the “gcPBM binding intensity (ln)” value was 7.19.

On to “TAAAATATGGAAATCACACATTTATTAAAATATATA [CACACA_site4623]”, for which the “gcPBM binding intensity (ln)” value turned out to be 6.01.

Consider “TATACCACCCGATATACACACTTGTAGACATCTTTT [CACACA_site4268]”, for which the “gcPBM binding intensity (ln)” value came out at 6.76. For TATGGGTTTATATAGGTGCAATATATGTATATATAA, the “gcPBM binding intensity (ln)” value amounted to 9.53.

As for “TATATAGTTTATATTTGTACATATAGACATTTATAA [XGTACX_site6414]”, the “gcPBM binding intensity (ln)” value was found to be 6.21.

Take “ACAAAACTCTTTAATTGTACAAATATAATATAAAAA [XGTACX_site5690]”: the “gcPBM binding intensity (ln)” value was determined as 6.55. Consider “AGCAATATTTATTAAAGTACGTAAAAAAAATTCTCA [XGTACX_site6550]”, for which the “gcPBM binding intensity (ln)” value amounted to 5.98. With AACCATTGGGAAAGGGTGCACATATATATATATATA the figure was 9.67; with “TGATGCAAAATATATACACACATATATATATATATA [CACACA_site3052]”, 9.4. For the sequence “GATTATATATTAAAAAGTACTTTATAAATACTTCTA [XGTACX_site8992]”, the “gcPBM binding intensity (ln)” value was found to be 6.31. Then “CATATACATTGTATATGTACATATATATATATATAT [XGTACX_site3772]”, with 9.33; and “AGTATATTAAAAAATACACACGTATTATATCTACAT [CACACA_site8844]”, with 6.37.

In the case of “GTTCATAAATTAAACACACACACACCGCTGGATACC [CACACA_site5779]”, the “gcPBM binding intensity (ln)” value came out at 6.82.

Regarding “TAATATACTTAATACACACACGAATATTTATAAATA [CACACA_site6675]”, the “gcPBM binding intensity (ln)” value came to 6.97.

Turning to “GATTCATCTAAACACCGTACATATTATATATATATA [XGTACX_site6030]”, the “gcPBM binding intensity (ln)” value stood at 8.65. With “AAACTCAACTTATATACACACAATCTTTTTTTTTTA [CACACA_site29]” the figure was 6.54. Then “CCCCTCGAAATAATTTGTACGAATATATTGTCTGTA [XGTACX_site8308]”, with 7.59.

On to “TATTGTATATAATAAACACACAATATTAAAAATATA [CACACA_site1057]”, for which the “gcPBM binding intensity (ln)” value came to 6.11. As for “TATTTAAAAAACACATGTACGAGTATTATATATAAA [XGTACX_site6654]”, the “gcPBM binding intensity (ln)” value was 6.82. For “GGTTATAACGCACATGCACACGTAAATAAATATTAT [CACACA_site9277]”, the “gcPBM binding intensity (ln)” value amounted to 9.92. With “TAAATTTTAATAAATACACACAAATTTTAATTCTAT [CACACA_site6039]” the figure was 6.27; with “ACATGCAACCATTCGGGTACAGAAATAAATATATAC [XGTACX_site4174]”, 6.48. Take “CTTTTTCGCATGAAAAGTACATGAAATATATTACAT [XGTACX_site8971]”: the “gcPBM binding intensity (ln)” value is 6.17. In the case of “AATAACTTTTTAAACACACACACATATAAATAAATA [CACACA_site6196]”, the “gcPBM binding intensity (ln)” value was found to be 6.97. Consider “ATTGGAAAATATGTTATATATATATATATATATATG [CACACA_negctrl_site116]”, for which the “gcPBM binding intensity (ln)” value came to 7.46. Then “TTAATTCGTACATACACACGCACATATATATATATA [CACACA_site1469]”, with 9.4; and “ATATTTTTTTTCTACACACATACAAATATATATTAT [CACACA_site2359]”, with 7.34. With “AATAATAATAGAAACACACACACATCTTTAATAATA [CACACA_site4805]” the figure was 6.76; with “ATATTAAAATACAGTGCATGTTAAAAATATATTATA [TGCATGCA_site977]”, 7.4; with “TTATAACATCTTAAATGTACAAATATGTGCTTATTT [XGTACX_site7285]”, 6.26. In the case of “AATAAAAGTTCACCTGTACACACATATATATATGTA [CACACA_site8500]”, the “gcPBM binding intensity (ln)” value stood at 6.7. Take “TAAAAAAAAAACATCTGTACCAATTTTTATGTATAA [XGTACX_site5196]”: the “gcPBM binding intensity (ln)” value was 6.2.

As for “ATGTATTTATATACTTGTACGTAAGATGTATTATAT [XGTACX_site908]”, the “gcPBM binding intensity (ln)” value came to 6.52. Then “TTAAGATCCTAAAAAACACACAATTGCGAATAATAA [CACACA_site6005]”, with 6.8.

As for “ATATCATAAAAAATGTGTACATATATGAACATATAA [XGTACX_site2239]”, the “gcPBM binding intensity (ln)” value is 6.6. Then “GATATATATGTTCACACACACATGGAAATATATATA [CACACA_site4371]”, with 6.62; and “GGAAATTAACAGAACACAATGTAACAATTTCTAACA [CACACA_negctrl_site1250]”, with 6.29. With “TATTTTCATTATACTACTTCGAAGATACCCTTTTTT [CACACA_negctrl_site256]” the figure was 6.53; with “AGATAAATATATTGTAGTACAGGAGCATAAATATAT [XGTACX_site8267]”, 8.68. Regarding “GTTCTTCCTTGTAAATGTACAAATACAAAATGTTCC [XGTACX_site6738]”, the “gcPBM binding intensity (ln)” value is 6.88. With “TATAAACATTAAAGGTGTACAATTTAATTTCAATTT [XGTACX_site2944]” the figure was 6.28; with “GTTCATAAAAATTTTTGTACCCATAAAATATTCCTC [XGTACX_site8611]”, 6.55. As for “TTTTTTTTTTTTAATTGTACTTATTAAAAAAAGCAA [XGTACX_site8713]”, the “gcPBM binding intensity (ln)” value was 6.2. With “GTAGGTGTTTTTGGTTGTACATATAAATATATATAC [XGTACX_site3380]” the figure was 7.05; with “TTTCTTCTTCAATGTTGTACTTTTCTCTTTTCTTAA [XGTACX_site1017]”, 6.91.

Consider “TTTTTTTTTTTTCAATCACACATGTTTTAATTATTT [CACACA_site5532]”, for which the “gcPBM binding intensity (ln)” value came out at 6.21. Then “TCATTTCACAGACACACACACACAAGATATTTCCTT [CACACA_site7774]”, with 7.06; and “TGTACGTTTTATAACACACACACAAAAAAAAAAAAA [CACACA_site3875]”, with 6.61; and “GAAGTTTTCTTAAAGATGCACTTTTTAAAAATAAAA [GTGCAC_site9941]”, with 6.81. Consider “TCTTCTTTTTTTTTTTTGTATTATTATAAATATTAT [CACACA_negctrl_site1668]”, for which the “gcPBM binding intensity (ln)” value turned out to be 6.53. For “AAGATAAAATGATGCACACAAAAGGGTGTAATATAT [CACACA_site1706]”, the “gcPBM binding intensity (ln)” value turned out to be 8.59.
